PubChem BioAssay AID1030 (National Center for Advancing Translational Sciences (NCATS), 2008)
In all, about 220,000 compounds went through this assay and about 16,000 (7.3%) were called active. The inconclusive results got no clear call from the source; some entries with a clear call stand among them for comparison. Calls follow the shape of the dose curve; as a rule, active = well fitted inhibition curve with a large enough effect (not every such curve was filed as active); inconclusive = small, poorly fitted or top-dose-only effect, or another doubt; inactive = no such curve, though single readings can be large or run the other way. No potency is given beside an inconclusive call; the fits are too rough.

Target: Aldehyde dehydrogenase 1A1 (Homo sapiens) (UniProt P00352)
Experiment: qHTS Assay for Inhibitors of Aldehyde Dehydrogenase 1 (ALDH1A1);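 as to activity, negative = inhibition: plate controls were no enzyme wells and a reference inhibitor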
Settings: Purified ALDH1A1, NADH fluorescence, propionaldehyde substrate; series mostly up to 75.3 µM; activity, negative = inhibition: at the top concentration
Potency is read from the fitted curve at half-maximal effect; tags tell the direction and shape of the fitted curve.

Sequence of UniProt P00352 (P00352 whole entry, looked up): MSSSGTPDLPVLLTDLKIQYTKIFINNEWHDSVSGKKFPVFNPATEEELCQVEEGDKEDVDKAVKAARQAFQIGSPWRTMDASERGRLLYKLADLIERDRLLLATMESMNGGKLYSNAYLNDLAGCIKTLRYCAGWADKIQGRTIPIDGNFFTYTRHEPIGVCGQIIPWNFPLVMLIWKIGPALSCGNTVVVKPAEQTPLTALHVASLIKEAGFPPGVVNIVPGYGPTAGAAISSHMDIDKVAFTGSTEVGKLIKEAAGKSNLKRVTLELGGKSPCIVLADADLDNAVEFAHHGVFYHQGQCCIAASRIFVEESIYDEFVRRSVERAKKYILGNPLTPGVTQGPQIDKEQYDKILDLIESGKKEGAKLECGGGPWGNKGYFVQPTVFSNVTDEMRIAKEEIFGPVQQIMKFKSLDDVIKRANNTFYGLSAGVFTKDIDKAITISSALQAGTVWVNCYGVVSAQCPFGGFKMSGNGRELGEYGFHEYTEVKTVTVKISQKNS

SMILES | Potency | activity, negative = inhibition
CC(=O)Nc1ccc(NC(=O)Cn2cnc3c(cnn3C(C)(C)C)c2=O)cc1 | active: 15.8 µM | 
CC(=O)N[C@H](CC(C)C)C(=O)O |  | inactive: 3.24%
Cc1nc2c(C)cccn2c1/C(O)=C1\C(=O)C(=O)N(CCN(C)C)C1c1ccco1 (configuration not stated) | inconclusive [inhibitor, single point] | 
CCC1=NN(C(=O)c2ccccc2Br)C(O)(c2ccc(Br)cc2)C1 (configuration not stated) | inconclusive [inhibitor, single point] | 
COc1ccc(CNC(=O)CCCn2nc([N+](=O)[O-])cc2C)cc1 | inconclusive [inhibitor, single point] | 
CCCCOc1ccc(C(=O)N2CCCCCC2)cc1 | inconclusive [inhibitor, single point] | 
CCN(CCO)c1ccc(-n2c(N)c(C(=O)OC)c3nc4ccccc4nc32)cc1 | inconclusive [inhibitor, single point] | 
COCCCn1c(SCCc2ccccc2)nc2cc(OC)c(OC)cc2c1=N | inconclusive [inhibitor, single point] | 
O=C(c1cc2c(s1)-c1ccccc1OC2)N1CCCC1 | inconclusive [inhibitor, partial curve] | 
O=C(O)CC12CC3CC(C1)CC(n1ncc(NCC4CCCO4)c(Cl)c1=O)(C3)C2 (configuration not stated) | active: 25.1 µM | 
CN1CCN(C(=O)Nc2cccc3ccccc23)CC1 | inconclusive [inhibitor, partial curve] | 
Nc1nc2c(c3c1c(=O)oc1ccccc13)CCCCC2 | inconclusive [inhibitor, partial curve] | 
COC(=O)c1cc([N+](=O)[O-])c(-n2cncn2)c([N+](=O)[O-])c1 |  | inactive: 0.675%
N#Cc1ccc(C(=O)Nc2ccn(-c3ccccc3)n2)cc1 | inconclusive [inhibitor, single point] | 
CC(=O)c1c(C)[nH]c(C(=O)OCC(=O)Nc2ncc(Cl)c(C)c2Cl)c1C |  | inactive: -8.25%
CN(C)/C=N/S(=O)(=O)c1ccc(Cl)cc1 |  | inactive: 3.83%
CCCS(=O)(=O)c1c(S(=O)(=O)CCC)c2c(N)cccn2c1C(=O)c1ccccc1 | inconclusive [inhibitor, single point] | 
O=C1CC(N2CCN(c3ccccn3)CC2)C(=O)N1c1ccc(F)cc1 (configuration not stated) |  | inactive: 1.93%
CCCn1c(-c2ccc(F)cc2)nc2c(N3CCN(CCC(=O)OCC)CC3)nc(C)nc21 |  | inactive: 5.36%
C/C(O)=C(\N=Nc1cc(C)ccc1O)C(N)=O | inconclusive [inhibitor, partial curve] | 
CC(=O)c1ccc(-n2nnnc2SCC(=O)Nc2sc(C)c(C)c2C#N)cc1 | active: 17.8 µM | 
CNC(=S)Nc1cccc(C(C)=O)c1 | inconclusive [inhibitor, single point] | 
CCN(/N=C/C=C/c1ccccc1)c1cc(=O)n(C)c(=O)[nH]1 |  | inactive: 0.538%
Cc1ccc(C2CC(c3ccc(Cl)cc3)=NNC2=O)cc1 (configuration not stated) | inconclusive [inhibitor, partial curve] | 

SMILES | Potency | activity, negative = inhibition
CCCn1nc2cc(C(=O)NCc3ccccc3)ccc2c1OCC | inconclusive [inhibitor, partial curve] | 
CCn1nnc(NC(=O)COc2cc(C)ccc2C(C)C)n1 |  | inactive: -15.5%
COc1ccc(CC(=O)NNc2ncnc3c2cnn3Cc2ccccc2)cc1OC | active: 10 µM | 
S=C(Nc1ccccc1)Nc1nc2ccccc2n1CCOc1ccc(Cl)cc1 | inconclusive [inhibitor, single point] | 
CCN(CC)CCn1nc2c3c(cccc3c1=O)-c1ccccc1-2 |  | inactive: -12.9%
CCCN(CC(=O)Nc1ccccc1C)C(=O)/C=C/c1cccs1 | inconclusive [inhibitor, single point] | 
O=C(O)c1nc2ccccc2nc1C(=O)O | inconclusive [inhibitor, single point] | 
O=C(CSc1nc2ccccc2s1)N1N=C(c2cccs2)CC1c1ccc(F)cc1 (configuration not stated) | inconclusive [inhibitor, single point] | 
CN(C)S(=O)(=O)c1ccc(/C(O)=C2/C(=O)C(=O)N(CCN3CCCCC3)C2c2cccnc2)cc1 (configuration not stated) | active: 22.4 µM | 
CCCC(C(=O)NCC1CCCO1)N(Cc1ccco1)C(=O)CNS(=O)(=O)c1ccc(F)cc1 (configuration not stated) | inconclusive [inhibitor, single point] | 
CCn1c(SCC(=O)N2CCOCC2)nc(O)cc1=O |  | inactive: 6.46%
CN(C)c1ccc(C(=O)c2ccc(O)cc2O)cc1 | inconclusive [inhibitor, partial curve] | 
Cc1nn(C)c(C)c1CNC(=O)c1cnn2c1NC(c1ccccc1)CC2C(F)(F)F (configuration not stated) |  | inactive: 2.35%
N#CC1=C2SCN(c3ccccc3)CN2C(=O)CC1c1cccs1 (configuration not stated) | active: 3.16 µM | 
COc1ccc2cc(CN(CC3CCCO3)C(=S)NCc3ccco3)c(=O)[nH]c2c1 (configuration not stated) | active: 3.55 µM | 
CN(C)C(=O)c1ccc(-c2cncnc2-n2ccnc2)cc1 |  | inactive: -3.95%
CCN(Cc1ccc(OC)c(F)c1)C(=O)CCl | active: 0.355 µM | 
O=C(Cn1cnc2c(nnn2Cc2ccccc2F)c1=O)N1CCN(c2ccccc2)CC1 | inconclusive [inhibitor, single point] | 
COc1ccccc1C(=O)Nc1ccc(S(=O)(=O)N2CCc3ccccc32)cc1 | inconclusive [inhibitor, partial curve] | 
Cn1cc(/C=C/C(=O)N2CCCC(C(=O)c3ccc(C(F)(F)F)cc3)C2)cn1 (configuration not stated) |  | inactive: 9.43%
COC(=O)c1cc(Br)c(=O)n(-c2nccs2)c1 | inconclusive [inhibitor, single point] | 
COc1cc(-c2ccc(N=Nc3ccc4c(S(=O)(=O)O)cc(S(=O)(=O)O)c(N)c4c3O)c(OC)c2)ccc1N=Nc1ccc2c(S(=O)(=O)O)cc(S(=O)(=O)O)c(N)c2c1O | inconclusive [inhibitor, partial curve] | 
CC(=O)N1CCN(c2ccc(NCc3cccs3)cc2)CC1 | inconclusive [inhibitor, single point] | 
CN(C)c1cc2c(Nc3ccc4c(cnn4Cc4ccccc4)c3)ncnc2cn1 | inconclusive [inhibitor, single point] | 

SMILES | Potency | activity, negative = inhibition
O=C1CC(c2ccco2)CC(O)=C1C=NCCN1CCNCC1 (configuration not stated) | active: 12.6 µM | 
Cc1ccc(-c2nc(-c3cccnc3)sc2CC(=O)Nc2ccc(C)c(Cl)c2)cc1 | inconclusive [inhibitor, single point] | 
O=C(N/N=C/c1cc([N+](=O)[O-])ccc1O)c1ccncc1 | inconclusive [inhibitor, single point] | 
S=C(NCCCN1CCOCC1)Nc1ccc(Nc2ccccc2)cc1 | inconclusive [inhibitor, single point] | 
COc1ccccc1/C=C/C=N/N1CCN(c2ccccn2)CC1 | inconclusive [inhibitor, single point] | 
COc1ccc(CCNCC(=O)Nc2ccc(C)c(S(=O)(=O)N(C)C)c2)cc1 | inconclusive [inhibitor, partial curve] | 
COC(=O)C1=C(C)C(c2cccs2)NC(=O)N1C (configuration not stated) |  | inactive: -4.05%
O=C(CNC(=O)c1ccc(Br)o1)Nc1cccc(-c2cnc3ccccc3n2)c1 | inconclusive [inhibitor, single point] | 
O=c1cc(CN2CCC(Cc3ccccc3)CC2)nc2sccn12 |  | inactive: -1.75%
Cc1nc2cnc(Oc3ccccc3)nc2n(CCC#N)c1=O | inconclusive [inhibitor, single point] | 
O=C(Nc1ccccc1C(=O)NCc1cccnc1)c1ccco1 | inconclusive [inhibitor, single point] | 
CC(C)OCCCNC(=O)C1CCC(CNS(=O)(=O)c2ccc(Cl)cc2)CC1 (configuration not stated) | inconclusive [inhibitor, partial curve, poor fit] | 
COC(=O)CC1C(=O)NCCN1C(=S)NC(=O)c1ccccc1[N+](=O)[O-] (configuration not stated) |  | inactive: -8.58%
O=C(Oc1ccccc1-c1csnn1)c1cccs1 | active: 17.8 µM | 
Cc1noc2ncc(C(=O)c3cc(F)ccc3O)cc12 |  | inactive: -1%
Cc1cc(C)cc(NC(=O)CN2CCN(CCN=CC3=C(O)CC(C)(C)CC3=O)CC2)c1 | inconclusive [inhibitor, single point] | 
COc1ccc(NS(=O)(=O)c2cc(NC(=O)c3ccco3)ccc2N2CCCC2)cc1 | inconclusive [inhibitor, single point] | 
CCOc1cccc(CNc2ccc(O)cc2)c1OCc1ccccc1Cl | inconclusive [inhibitor, single point] | 
CN(Cc1ccccc1)C(=O)CCn1c(=O)oc2ccccc21 | inconclusive [inhibitor, partial curve] | 
N#C/C(=C\Nc1ccc2cn[nH]c2c1)c1nc(-c2ccccc2)cs1 |  | inactive: -0.0621%
CCCCC12CN3CC(C)(CN(C1)C31C(=O)N(C)c3ccc(C)cc31)C2=O (configuration not stated) | inconclusive [inhibitor, partial curve] | 
COc1c(N2CCN(C(=S)NCc3ccccc3)C(C)C2)c(F)cc2c(=O)c(C(=O)O)cn(C3CC3)c12 (configuration not stated) | inconclusive [inhibitor, partial curve] | 
Cn1c(=NC(=O)c2ccco2)sc2cccc(F)c21 | inconclusive [inhibitor, partial curve] | 
C=CCOC(=O)C1=C[C@H](c2coc3ccccc3c2=O)[C@@H](CCCO)[C@H](OCC)O1 |  | inactive: 0.259%
